In the supplement of paper PMC8728848:
Some of the results follow.

Legend:
Assay in all cases: glycan array binding signal (z-score within array); higher = stronger binding
Details in all cases: glycan notation: IUPAC condensed, linker removed
[1] = target: Man(a1-3)[Man(a1-6)]Man(a1-6)[Man(a1-2)Man(a1-3)]Man(b1-4)GlcNAc(b1-4)GlcNAc
Procedure, shortened: (§1)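 The binding signal is a Z-score computed within each array and averaged over linkers. Arrays of the same protein sequence at different concentrations or buffers were also averaged together. Data originate from 3228 arrays in the Consortium for Functional Glycomics database, kept only where the protein sequence was available.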

[2] = target: Man(a1-3)[Man(a1-6)]Man(a1-6)[Man(a1-3)]Man
Procedure, shortened: as §1

[3] = target: Man(a1-3)[Man(a1-6)]Man(a1-6)[Man(a1-3)]Man(b1-4)GlcNAc(b1-4)GlcNAc
Procedure, shortened: as §1

[4] = target: Man(a1-3)[Man(a1-6)]Man(b1-4)GlcNAc(b1-4)GlcNAc
Procedure, shortened: as §1

[5] = target: Man(a1-3)[Man(a1-6)]Man(b1-4)GlcNAc(b1-4)[Fuc(a1-6)]GlcNAc
Procedure, shortened: as §1

Man(a1-6)Man = target: Man(a1-6)Man
Procedure, shortened: as §1

Man(b1-4)GlcNAc = target: Man(b1-4)GlcNAc
Procedure, shortened: as §1

MurNAc(b1-4)GlcNAc = target: MurNAc(b1-4)GlcNAc
Procedure, shortened: as §1

Neu5Ac(a2-3)Gal = target: Neu5Ac(a2-3)Gal
Procedure, shortened: as §1

[6] = target: Neu5Ac(a2-3)Gal(b1-3)GalNAc
Procedure, shortened: as §1

[7] = target: Neu5Ac(a2-3)Gal(b1-3)GalNAc(b1-3)Gal(a1-4)Gal(b1-4)Glc
Procedure, shortened: as §1

[8] = target: Neu5Ac(a2-3)Gal(b1-3)GalNAc(b1-3)Gal(b1-4)GlcNAc
Procedure, shortened: as §1

[9] = target: Neu5Ac(a2-3)Gal(b1-3)GalNAc(b1-4)[Neu5Ac(a2-3)]Gal(b1-4)Glc
Procedure, shortened: as §1

[10] = target: Neu5Ac(a2-3)Gal(b1-3)GalNAc(b1-4)[Neu5Ac(a2-8)Neu5Ac(a2-3)]Gal(b1-4)Glc
Procedure, shortened: as §1

[11] = target: Neu5Ac(a2-3)Gal(b1-3)GalNAc6S
Procedure, shortened: as §1

[12] = target: Neu5Ac(a2-3)Gal(b1-3)GlcNAc
Procedure, shortened: as §1

[13] = target: Neu5Ac(a2-3)Gal(b1-3)GlcNAc(b1-2)Man
Procedure, shortened: as §1

[14] = target: Neu5Ac(a2-3)Gal(b1-3)GlcNAc(b1-2)Man(a1-3)[GlcNAc(b1-4)][Neu5Ac(a2-3)Gal(b1-3)GlcNAc(b1-2)Man(a1-6)]Man(b1-4)GlcNAc(b1-4)GlcNAc
Procedure, shortened: as §1

[15] = target: Neu5Ac(a2-3)Gal(b1-3)GlcNAc(b1-2)Man(a1-3)[Neu5Ac(a2-3)Gal(b1-3)GlcNAc(b1-2)Man(a1-6)]Man(b1-4)GlcNAc(b1-4)GlcNAc
Procedure, shortened: as §1

[16] = target: Neu5Ac(a2-3)Gal(b1-3)GlcNAc(b1-3)Gal(b1-3)GlcNAc
Procedure, shortened: as §1

[17] = target: Neu5Ac(a2-3)Gal(b1-3)GlcNAc(b1-3)Gal(b1-4)GlcNAc
Procedure, shortened: as §1

[18] = target: Neu5Ac(a2-3)Gal(b1-3)GlcNAc(b1-3)GalNAc
Procedure, shortened: as §1

[19] = target: Neu5Ac(a2-3)Gal(b1-3)GlcNAc(b1-4)Gal(b1-4)Glc
Procedure, shortened: as §1

[20] = target: Neu5Ac(a2-3)Gal(b1-3)GlcNAc(b1-6)GalNAc
Procedure, shortened: as §1

[21] = target: Neu5Ac(a2-3)Gal(b1-3)GlcNAc6S
Procedure, shortened: as §1

[22] = target: Neu5Ac(a2-3)Gal(b1-3)[Fuc(a1-4)]GlcNAc
Procedure, shortened: as §1

[23] = target: Neu5Ac(a2-3)Gal(b1-3)[Fuc(a1-4)]GlcNAc(b1-3)Gal(b1-3)[Fuc(a1-4)]GlcNAc
Procedure, shortened: as §1

[24] = target: Neu5Ac(a2-3)Gal(b1-3)[Fuc(a1-4)]GlcNAc(b1-3)Gal(b1-4)[Fuc(a1-3)]GlcNAc
Procedure, shortened: as §1

[25] = target: Neu5Ac(a2-3)Gal(b1-3)[GlcNAc(b1-6)]GalNAc
Procedure, shortened: as §1

[26] = target: Neu5Ac(a2-3)Gal(b1-3)[Neu5Ac(a2-3)Gal(b1-4)]GlcNAc
Procedure, shortened: as §1

[27] = target: Neu5Ac(a2-3)Gal(b1-3)[Neu5Ac(a2-6)]GalNAc
Procedure, shortened: as §1

[28] = target: Neu5Ac(a2-3)Gal(b1-3)[Neu5Ac(a2-6)]GlcNAc(b1-3)[Fuc(a1-3)[Gal(b1-4)]GlcNAc(b1-6)]Gal(b1-4)Glc
Procedure, shortened: as §1

[29] = target: Neu5Ac(a2-3)Gal(b1-3)]Neu5Ac(a2-3)Gal(b1-4)]GlcNAc
Procedure, shortened: as §1

Neu5Ac(a2-3)Gal(b1-4)Glc = target: Neu5Ac(a2-3)Gal(b1-4)Glc
Procedure, shortened: as §1

[30] = target: Neu5Ac(a2-3)Gal(b1-4)GlcNAc
Procedure, shortened: as §1

[31] = target: Neu5Ac(a2-3)Gal(b1-4)GlcNAc(b1-2)Man
Procedure, shortened: as §1

[32] = target: Neu5Ac(a2-3)Gal(b1-4)GlcNAc(b1-2)Man(a1-3)[GlcNAc(b1-4)][Neu5Ac(a2-3)Gal(b1-4)GlcNAc(b1-2)Man(a1-6)]Man(b1-4)GlcNAc(b1-4)GlcNAc
Procedure, shortened: as §1

[33] = target: Neu5Ac(a2-3)Gal(b1-4)GlcNAc(b1-2)Man(a1-3)[Neu5Ac(a2-3)Gal(b1-4)GlcNAc(b1-2)Man(a1-6)]Man(b1-4)GlcNAc(b1-4)GlcNAc
Procedure, shortened: as §1

[34] = target: Neu5Ac(a2-3)Gal(b1-4)GlcNAc(b1-2)Man(a1-3)[Neu5Ac(a2-3)Gal(b1-4)GlcNAc(b1-2)Man(a1-6)]Man(b1-4)GlcNAc(b1-4)[Fuc(a1-6)]GlcNAc
Procedure, shortened: as §1

[35] = target: Neu5Ac(a2-3)Gal(b1-4)GlcNAc(b1-2)Man(a1-3)[Neu5Ac(a2-6)Gal(b1-4)GlcNAc(b1-2)Man(a1-6)]Man(b1-4)GlcNAc(b1-4)GlcNAc
Procedure, shortened: as §1

[36] = target: Neu5Ac(a2-3)Gal(b1-4)GlcNAc(b1-2)[Neu5Ac(a2-3)Gal(b1-4)GlcNAc(b1-4)]Man(a1-3)[GlcNAc(b1-4)][Neu5Ac(a2-3)Gal(b1-4)GlcNAc(b1-2)[Neu5Ac(a2-3)Gal(b1-4)GlcNAc(b1-6)]Man(a1-6)]Man(b1-4)GlcNAc(b1-4)GlcNAc
Procedure, shortened: as §1

[37] = target: Neu5Ac(a2-3)Gal(b1-4)GlcNAc(b1-2)[Neu5Ac(a2-3)Gal(b1-4)GlcNAc(b1-4)]Man(a1-3)[GlcNAc(b1-4)][Neu5Ac(a2-3)Gal(b1-4)GlcNAc(b1-4)Man(a1-6)]Man(b1-4)GlcNAc(b1-4)GlcNAc
Procedure, shortened: as §1

[38] = target: Neu5Ac(a2-3)Gal(b1-4)GlcNAc(b1-2)[Neu5Ac(a2-3)Gal(b1-4)GlcNAc(b1-6)]Man(a1-6)[Neu5Ac(a2-3)Gal(b1-4)GlcNAc(b1-2)Man(a1-3)]Man(b1-4)GlcNAc(b1-4)GlcNAc
Procedure, shortened: as §1

[39] = target: Neu5Ac(a2-3)Gal(b1-4)GlcNAc(b1-2)[Neu5Ac(a2-3)Gal(b1-4)GlcNAc(b1-6)]Man(a1-6)[Neu5Ac(a2-3)Gal(b1-4)GlcNAc(b1-2)Man(a1-3)][GlcNAc(b1-4)]Man(b1-4)GlcNAc(b1-4)GlcNAc
Procedure, shortened: as §1

[40] = target: Neu5Ac(a2-3)Gal(b1-4)GlcNAc(b1-3)Gal
Procedure, shortened: as §1

B1: DBA (Dolichos biflorus) (protein)
chain: ANIQSFSFKNFNSPSFILQGDATVSSGKLQLTKVKENGFPLRFPSGRAFYSSPIQIYDKFTGAVASWATSFTVKISAPSKASFADGIAFALVPVGSEPRRNGGYLGVFDSDVYNNSAQTVAVEFDTLSNSGWDPSMKHIGIDVNSIKSIATVSWDLANGENAEILITYNAATSLLVVSLVHPSRRTSYILSERVDITNELPEYVGVGFSATTGLSEGYIETHDVLSWSFASRLPDDSTAEPLDLARYLVRNVL
glycan array binding signal (z-score) [1]: -0.047
glycan array binding signal (z-score) [2]: -0.1
glycan array binding signal (z-score) [3]: -0.124
glycan array binding signal (z-score) [4]: -0.13
glycan array binding signal (z-score) [5]: -0.121
glycan array binding signal (z-score) (Man(a1-6)Man): -0.083
glycan array binding signal (z-score) (Man(b1-4)GlcNAc): -0.107
glycan array binding signal (z-score) (MurNAc(b1-4)GlcNAc): -0.119
glycan array binding signal (z-score) (Neu5Ac(a2-3)Gal): -0.119
glycan array binding signal (z-score) [6]: -0.158
glycan array binding signal (z-score) [7]: -0.077
glycan array binding signal (z-score) [8]: -0.203
glycan array binding signal (z-score) [9]: -0.14
glycan array binding signal (z-score) [10]: -0.103
glycan array binding signal (z-score) [11]: -0.139
glycan array binding signal (z-score) [12]: -0.13
glycan array binding signal (z-score) [13]: 0.101
glycan array binding signal (z-score) [14]: -0.172
glycan array binding signal (z-score) [15]: -0.139
glycan array binding signal (z-score) [16]: -0.12
glycan array binding signal (z-score) [17]: -0.154
glycan array binding signal (z-score) [18]: -0.113
glycan array binding signal (z-score) [19]: -0.108
glycan array binding signal (z-score) [20]: -0.111
glycan array binding signal (z-score) [21]: -0.064
glycan array binding signal (z-score) [22]: -0.115
glycan array binding signal (z-score) [23]: -0.063
glycan array binding signal (z-score) [24]: -0.126
glycan array binding signal (z-score) [25]: -0.093
glycan array binding signal (z-score) [26]: -0.188
glycan array binding signal (z-score) [27]: -0.104
glycan array binding signal (z-score) [28]: -0.124
glycan array binding signal (z-score) [29]: -0.117
glycan array binding signal (z-score) (Neu5Ac(a2-3)Gal(b1-4)Glc): -0.105
glycan array binding signal (z-score) [30]: -0.144
glycan array binding signal (z-score) [31]: -0.076
glycan array binding signal (z-score) [32]: -0.204
glycan array binding signal (z-score) [33]: -0.109
glycan array binding signal (z-score) [34]: -0.148
glycan array binding signal (z-score) [35]: -0.165
glycan array binding signal (z-score) [36]: -0.098
glycan array binding signal (z-score) [37]: -0.126
glycan array binding signal (z-score) [38]: -0.121
glycan array binding signal (z-score) [39]: -0.187
glycan array binding signal (z-score) [40]: -0.214
